From PubChem BioAssay AID1794842 (National Center for Advancing Translational Sciences (NCATS), 2023)
Hit rate of the full screen: of about 2,800 compounds, fewer than 10 were called active. The call rests on the fitted dose curve; in most records, active means well fitted curve in the direction sought with a large enough effect; inconclusive means small, poorly fitted or top-dose-only effect, or another doubt; inactive means no such curve, though single readings can be large or run the other way. Some of the results follow.

The compounds below were run against Metallo-beta-lactamase type 2 (Klebsiella pneumoniae) (UniProt C7C422) (assay: qHTS to identify inhibitors of the New Delhi Metallo-beta-lactamase (NDM): Meropenem screen against the machine-based learning selections.). Conditions: Purified NDM-1, meropenem hydrolysis, absorbance 300 nm; at 38.4 µM (top of the series) unless noted.
Summary of the method: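 NDM-1 (2 nM final) in 50 mM HEPES pH 7.0, 1 uM Zn2SO4, 0.01% Tween20 was preincubated with compounds for >30 min. Nitrocefin (16.7 uM final) was read at 485 nm after 15 min, and meropenem (50 uM final) at 300 nm after 30 min.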
Further: % of control where 0% means no effect.

Sequence of UniProt C7C422 (C7C422 whole entry, looked up): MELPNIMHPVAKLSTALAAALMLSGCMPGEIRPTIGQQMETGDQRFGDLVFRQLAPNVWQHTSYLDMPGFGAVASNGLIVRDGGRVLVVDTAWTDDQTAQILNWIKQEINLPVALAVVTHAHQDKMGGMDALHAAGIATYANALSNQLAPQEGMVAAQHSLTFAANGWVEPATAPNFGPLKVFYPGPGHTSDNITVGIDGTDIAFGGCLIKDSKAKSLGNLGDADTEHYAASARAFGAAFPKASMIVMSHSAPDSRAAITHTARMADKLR

Compound	activity change, negative = inhibition
CN[C@@H](CC(C)C)C(=O)N[C@H]1C[C@@](O)(C(=O)N[C@H](Cc2c[nH]c3ccccc23)C(N)=O)C[C@@H](O)[C@@H]1O	inactive: -0.384%
CC1(CNC(=O)c2ccc3c(c2)OCO3)CCOCC1	inactive: 3.36%
O=C(OCc1ccccc1)N1CCC2(C1)C(=NC1CCCC1)NC(=O)N2c1cccnc1 (stereo not drawn)	inactive: 1.78%
O=C(Cc1noc2ccccc12)N[C@@H]1COCC[C@@H]1OCc1ccccn1	inactive: -1.28%
Cc1nn(Cc2ccccc2)c(C)c1[C@@H]1C=C[C@@H](NC(=O)NC2CCCCC2)C1	inactive: 13.4% [at 57.5 µM]
C=CCn1cc2c3c(cccc31)[C@H](CC(C)C)N[C@H](C(=O)N1CCOCC1)C2	inactive: 2.17% [at 57.5 µM]
N#Cc1cccc(CN2CCC[C@H]2c2nc(-c3ccc(OC4CCCCC4)nc3)no2)c1	inactive: 0.944% [at 57.5 µM]
Cc1ccsc1-c1[nH]nc2ncc(-c3ccc(CO)cc3)nc12	inactive: 5.24% [at 57.5 µM]
COc1ccc(C(=O)N[C@H]2CO[C@H]3[C@@H]2OC[C@@H]3n2nnnc2-c2cccc(OC)c2)cc1	inactive: 1.7%
Cc1ccc(-c2cc(O)c3c(c2)CNCCO3)cc1	inactive: 0.171%
O[C@@H]1C[C@@H](c2nnc3n2CCN(Cc2ccccc2)C3)N(Cc2ccccc2)C1	inactive: 4.37%
OC(c1cccc(C(F)(F)F)c1)c1nc(Nc2ccncc2)n[nH]1 (stereo not drawn)	inactive: 3.37% [at 57.5 µM]
O=C(Cc1c[nH]c2ncc(-c3cccnc3)cc12)NCCc1ccccc1	inactive: 19.1% [at 57.5 µM]
COc1cccc(Nc2cc3c(cn2)CN(Cc2ccncc2)CCN3)c1	inactive: 7.92% [at 57.5 µM]
CC(C)C(=O)Nc1ccc([C@H]2OCC(=O)N(Cc3ccccc3)[C@@H]2CO)cc1	inactive: -1.78% [at 57.5 µM]
CCNc1ncc(C(=O)NC2CC(c3nnc(CO)n3CC)C2)cn1 (stereo not drawn)	inactive: 4.73%
CC1(C(=O)NCCc2ccccn2)CCc2cnc(NCc3ccccc3)nc21 (stereo not drawn)	inactive: 1.18% [at 57.5 µM]
CC(C)(O)CCc1ccc(C(=O)NCCSc2ccccn2)cc1	inactive: -0.658%
O=C(Cc1ccccc1Cl)N1CCC(Cc2nc(-c3ccc(F)cc3)no2)CC1	inactive: -1.26%

Compound	activity change, negative = inhibition
COc1ccc(C(=O)N2CCC(c3nn(-c4ccccc4)c(=O)[nH]3)CC2)cc1	inactive: -0.198%
CCn1ccc(C(=O)N2CC(c3nnc(-c4ccc(C)cc4)o3)C3(CCOCC3)C2)n1 (stereo not drawn)	inactive: -0.487%
CC(C)NCC1(COc2ccc(C(F)(F)F)cn2)C[C@@H](O)[C@@H](O)C1 (stereo partly drawn)	inactive: 34.9% [at 57.5 µM]
Cc1nnnn1CC(=O)NCc1cccnc1N(C)CCc1ccccn1	inactive: 1.5%
COCCNC(=O)c1ccc(OC2CCN(S(C)(=O)=O)CC2)c(Cl)c1	inactive: 0.731%
C=CCN1CC2(CCC1=O)CCN(CC1CCCS(=O)(=O)C1)CC2 (stereo not drawn)	inactive: -0.0853%
COc1ccc(C(=O)N2CC[C@@H](CC(=O)O)[C@@H](CCN3C[C@@H]4C[C@H](C3)c3cccc(=O)n3C4)C2)cc1	inactive: -0.0975%
NC(=O)c1cccc(-c2n[nH]c3c2CC(=O)N(CC2CCOCC2)C3)c1	inactive: 5.77% [at 57.5 µM]
COc1ccccc1-c1cnc(Nc2cccc(N[S+](C)(=O)[O-])c2)c2c1CCO2	inactive: 5.26% [at 57.5 µM]
COc1ccc(NC(=O)O[C@@H]2CC[C@]3(C)C(CC[C@@H](O)[C@H]3CC(=O)NCc3ccc4c(c3)OCO4)[C@]2(C)CO)cc1 (stereo partly drawn)	inactive: 3.41%
O=c1cc(-c2ccccn2)oc2c(NCc3ccccc3)nccc12	inactive: 11.4% [at 57.5 µM]
OCC1(Cc2ccc(F)cc2F)CCCN(c2cnc3ccccc3n2)C1 (stereo not drawn)	inactive: 0.21%
C[C@H]1[C@@H]2[C@@H](O)[C@H]([C@H](C)C(=O)N3CCCC3)CC[C@@]2(C)CC[C@@H]1NC(=O)CC(C)(C)C	inactive: 0.93% [at 57.5 µM]
CCOC(=O)C[C@@H]1C[C@@H](C(C)C)[C@H](CNC(=O)c2ccc(C#N)cc2)C=C1C	inactive: 0.39% [at 57.5 µM]
OC[C@]12CCCN[C@@H]1CCN(Cc1cccc(-c3ccccn3)c1)C2	inactive: 1.81%
CN1[C@@H](CCC(=O)N2CCN(c3ccccc3)CC2)CNC(=O)[C@@H]2[C@H]1CCN2Cc1cccc(Cl)c1	inactive: 0.159%
COc1cccc(CN2C[C@@H]3C(C(=O)O)[C@@H]3C2)c1OCCn1ccnc1 (stereo partly drawn)	inactive: 37.8%
C[C@@H](NC(=O)Cc1ccccc1)c1onc(-c2ccc(Cl)cc2)c1C(=O)O	inactive: -1.91% [at 57.5 µM]
CC(C)c1noc(CN(C)C(=O)CC2C(=O)NCCN2Cc2ccoc2)n1 (stereo not drawn)	inactive: 0.77%
